We go through 22 molecules from paper PMC12136788.

B1: chr2:15768762:15768763:+_ENSG00000079785_ENST00000233084|hu_mus|motif|central (ssRNA)
RNA: GGGAGUUCUACAGUCCGACGAUCAGGCAGGGUGACGUUGAUCACAUAAGGAACGCCAUGGAUAUCAAUCCCUCUAGCAGCGGCAUCUGUGCAAAUCAAGAAUCUUACGUCUCCUUUCUUAAAUCGUUCCAAGUUUUGCUUUCUCAACAGAGGAUUGAGCAUCA
B2: chr5:31803264:31803265:+_ENSMUSG00000064037_ENSMUST00000076949|mus_hu|FALSE|FALSE (ssRNA)
RNA: GGGAGUUCUACAGUCCGACGAUCUGGAAAUGAGGAUGCAAGGGCUUCAGUGAUAAUUGUCCCAGAAGCUGACCAGGUGAAUACCUCAAUCUGUCCAGGUGUGUCAAUCAACACAUAUUUGGACAUGUUCUGGGCCUUCUCAAUCAACAGAGGAUUGAGCAUCA
B3: chr4:83978119:83978120:+_ENSG00000138663_ENST00000264389|hu_hu|FALSE|FALSE (ssRNA)
RNA: GGGAGUUCUACAGUCCGACGAUCAUUUAUGUAAGCCUCUGCCUGGACUGGAUCAUCAUCCUCCAGAUAUAGCCUAGCAAUCUUCAAGUAAGUCUCCAGUUUAUAAUCUACAUUGUACUGUUUUUGUCCUGUUUCCAAAGGAAUCAACAGAGGAUUGAGCAUCA
B4: chr7:135612270:135612271:-_ENSG00000105887_ENST00000393085|hu_mus|hu_hu_hu_mus_False|88_108 (ssRNA)
RNA: GGGAGUUCUACAGUCCGACGAUCGUUUCUGAGAUGUAUGUUAAAUAUUCAGUGGAGGGAAAACAAAACUUAACCUUUUAUUAAUGCGUGUUGUACCAAAAGCAGACAUUUUAGCUUCAUUUAUUCAAAAAUAUUAACAUUAAGCAACAGAGGAUUGAGCAUCA
B5: chr1:93988920:93988921:+_ENSG00000137942_ENST00000370253|hu_hu|FALSE|FALSE (ssRNA)
RNA: GGGAGUUCUACAGUCCGACGAUCCAGAUCAUGAGCAUAUCUCAUUAAUUCACCAUACACUCUGUGCGCCAUUUCUUCUGCUACAACUUCUCGCUGUCCUGCAUAGUCAUUUAACUCAUUAAGGAUAUUAAAAAAGGCUACACACAACAGAGGAUUGAGCAUCA
B6: 57543866_57545502_978_CDS_ENSMUSG00000062949_ENSMUST00000101527|mouse|control|control (ssRNA)
RNA: GGGAGUUCUACAGUCCGACGAUCUAAAUAAACAAUCAAGAAGGCAUUAAUAGAUUUUUCAACAGCAGAACAUUUCUGAGAUUUCCCUUGGUAGUUCAAAGCCAUUUUGGUUUCCAUCCCAGUGUAAACAGCAACUCCAUAUAUCAACAGAGGAUUGAGCAUCA
B7: chr10:33214929:33214930:-_ENSG00000150093_ENST00000302278|hu_hu|hu_hu_hu_mus_True|78_88 (ssRNA)
RNA: GGGAGUUCUACAGUCCGACGAUCAACAAGUUCAUUGAAAAACUCUCCUUUAUUAGUAAGACUGAGCACAUUUUUGUAGCUAAAUGGGCUGGUGCAGUUUUGUUCACUUGUACAAGGAUUUCUUAGCUUUGCUGGGGUUGUGCUCAACAGAGGAUUGAGCAUCA
B8: chr5:95128998:95128999:+_ENSG00000164292_ENST00000379982|hu_mus|motif|central (ssRNA)
RNA: GGGAGUUCUACAGUCCGACGAUCAGCUUUUGUUCCCUUUUAAGACCACCACAGUCUUUAAAAGAUAACUAGUAAGAAGCGGUAUGGUGACUUUUAAAACAUAUUGAUUUUAGUUAUAAGAAUUUUUCCUGGAAUCCAGAAGUACAACAGAGGAUUGAGCAUCA
B9: chr11:75570464:75570465:+_ENSMUSG00000020849_ENSMUST00000067664|perfect_dup|FALSE|FALSE (ssRNA)
RNA: GGGAGUUCUACAGUCCGACGAUCACGGUCGGGGGAAUUAAGAAUUUCAUAGUAGAAUACGGAAAAGUUGAGAGCAAGACCUAAACGAAUGGGGUGCGUUGGAGGAAGUUCUGUCAUCGCAAUGUCACUAGCAGCUUUGUAAGCCAACAGAGGAUUGAGCAUCA
B10: chr5:71490416:71490417:+_ENSG00000131711_ENST00000296755|hu_hu|FALSE|FALSE (ssRNA)
RNA: GGGAGUUCUACAGUCCGACGAUCAUACUGCAUUUCCUUGCUGCUCUUGACUGGAUUAAGCACAUACAUCUCAAGUUUACCUACUCCCAUUUUUUGGAAAAGAAUGACAGGAUCAAUAGUAUUGCCUACACUUCUAAACAGAGGCAACAGAGGAUUGAGCAUCA
B11: chr7:108137184:108137185:-_ENSG00000135241_ENST00000257694|hu_mus|FALSE|FALSE (ssRNA)
RNA: GGGAGUUCUACAGUCCGACGAUCUCGAUAGAGUUCCUCACAUUCAUCCAGCGGCAUGUGAAACAAUCCCAGCAUAAAUGCUAAUAUGGCCCCUGUGCUUACUCCACAGAUGUAAUCAAAAAGCUGAUGAAUCGGCUUCUGAGUCAACAGAGGAUUGAGCAUCA
B12: chr10:5827197:5827198:-_ENSG00000057608_ENST00000380191|perfect_dup|FALSE|FALSE (ssRNA)
RNA: GGGAGUUCUACAGUCCGACGAUCAUACAGGUACGGGCUUUUACCGUAUCUUGCCAAAGACUCGCUGUAAAGUUUAAUUCUAUUAAUGGUUUCACAACACGGCUGAUCUAAGUAGUCAUCUGUUCUGUACAGUGCAAGAGAAUGCAACAGAGGAUUGAGCAUCA
B13: chr1:220276048:220276049:+_ENSG00000067704_ENST00000302637|hu_hu|hu_hu_hu_mus_True|28_88 (ssRNA)
RNA: GGGAGUUCUACAGUCCGACGAUCGCAAAUUGCCUGGUUGGCGGGAAUCGUCCAAGGCUGGGUGGUCCAAACUAAAACGCUAACAGGGGAUGAGGCAUCUGUAAGAGAUGCCAAUUUCGGAGGAGGUCUCAGGAGGGGGAAUCUCAACAGAGGAUUGAGCAUCA
B14: 98041578_98045231_405_CDS_ENSMUSG00000018160_ENSMUST00000107545|mouse|control|control (ssRNA)
RNA: GGGAGUUCUACAGUCCGACGAUCGGCUAUAGAUUCCAAACGAUCAGUCAUUGCUGGCAAAGAUGUUACUUUGAGAGCCUUCUGCAAUGUCUCCAAACAGCUGACCAAAUGCUGAUGCCCUCCAGAACUCAUUACGACCCUCUUCAACAGAGGAUUGAGCAUCA
B15: chr9:14812383:14812384:-_ENSMUSG00000031934_ENSMUST00000164273|mus_mus|mus_mus_mus_hu_True|1_68 (ssRNA)
RNA: GGGAGUUCUACAGUCCGACGAUCAUAGCCCAGGUAGAUACACGCUAACAGUAUAAUGAUGAGUGUCACCAGCCGGCAGCUAAUGUACUUGAUGAUUAAAUUAUUAGAAUUUUUCUUUGUCUUCAAGUACUGCUCCACGAUUGGCAACAGAGGAUUGAGCAUCA
B16: 243778409_243800978_756_CDS_ENSG00000117020_ENST00000366539|human|control|control (ssRNA)
RNA: GGGAGUUCUACAGUCCGACGAUCAUGUCUAGUGUUCUUUAAUACUCUGCUUUCAGUUAGAGUGUGUGCCACUUCAUCCUUUGCAAUAAUGACUUCUUUCUUCAGAAUCUUCAUAGCAUAGUAUUUUCCACUUGCCUUCUCUCGCAACAGAGGAUUGAGCAUCA
B17: chr14:66974463:66974464:+_ENSMUSG00000022044_ENSMUST00000074523|mus_hu|mus_mus_mus_hu_False|68_108 (ssRNA)
RNA: GGGAGUUCUACAGUCCGACGAUCUUGUAGGAUGAUUUAUUCAGGGGAUCGGCCAGGAAGCAGGAGCAGAACAGAGACACCAGCGGGAGCUCCUUCAUCUUCUCUUUGUAGGCAGCAAGGGUCAUGUUUCUGGGAUCUGGUGGCCAACAGAGGAUUGAGCAUCA
B18: chr11:87793186:87793187:-_ENSMUSG00000020483_ENSMUST00000020775|mus_hu|FALSE|FALSE (ssRNA)
RNA: GGGAGUUCUACAGUCCGACGAUCCACAGUCUGGGAGGGCAGGGGGAAACACAGAUUUGGACAUUCAUAAAAAAAUAAAACCUAAAAUCAAGCACUCAAUUUUGUGCCCACUGAAGGGUUUGAUAAAGGGAACUCAGUCACCACCAACAGAGGAUUGAGCAUCA
B19: chr11:31834330:31834331:+_ENSMUSG00000020300_ENSMUST00000109412|mus_hu|FALSE|FALSE (ssRNA)
RNA: GGGAGUUCUACAGUCCGACGAUCUAAAGUUCAGAGUAAUAGAUAAUCAUUGUUUAUGCCCUGUAAAUUGAAGUGUAACCAAUAAUCUGUAAACACACUUGUCACACAAUCACAAGUAAAUAUUAGUAGAAUAACAAUUUCUUACAACAGAGGAUUGAGCAUCA
B20: chr18:21005031:21005032:-_ENSMUSG00000033382_ENSMUST00000025177|mus_mus|FALSE|FALSE (ssRNA)
RNA: GGGAGUUCUACAGUCCGACGAUCAAACUUCCAGAGUAAUGACAAAUCAGACAGCAAAAGCGGAACUUUUAAAGGGUUUCUAAAAGCCACUUCCACAGUAAUUGGCUCUUCUACAACUGCAAGUGGAAACCUGGAGUUAUCGGACAACAGAGGAUUGAGCAUCA
B21: chr1:145439819:145439820:+_ENSG00000117289_ENST00000369317|hu_hu|motif|central (ssRNA)
RNA: GGGAGUUCUACAGUCCGACGAUCUUUCUUUGUCUCUUGAGUUGGCUGGCUCGGGCGGUCAAGAAAAGCCUUCACCCAGUAGUCGGCACACCCAUAUUUUCCUUUGAAGGAUGUUCCCAGAGGCCCCUGAGGAAGCUCAAAGCCCAACAGAGGAUUGAGCAUCA
B22: chr4:17845017:17845018:+_ENSG00000109805_ENST00000514176|hu_mus|hu_hu_hu_mus_False|48_78 (ssRNA)
RNA: GGGAGUUCUACAGUCCGACGAUCGCUCUCUUAACUUGUAUCUUCAUUAAGGAACUCGCAAGGUUAAAGUUUACUUUUCUGUAGCGCGCGGUUUUGGGCUCGUCUGGGUAAUCUCAUCUUCAUUUCUGAUGGUGGUUCAUGAUCCAACAGAGGAUUGAGCAUCA

The list shows a part of the results.

The experiment has as its target T1, UNK ZnF1-3 (human, UniProt Q9C0B0 31-174).
T1 sequence: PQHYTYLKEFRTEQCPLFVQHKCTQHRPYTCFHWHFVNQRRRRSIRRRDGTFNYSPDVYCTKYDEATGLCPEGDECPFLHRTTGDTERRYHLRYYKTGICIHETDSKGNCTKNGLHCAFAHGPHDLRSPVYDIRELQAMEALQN
The experiment can be described thus: nsRBNS (natural sequence RNA bind-n-seq); RBNS binding buffer (assumed for nsRBNS): 25 mM Tris pH 7.5, 150 mM KCl, 3 mM MgCl2, 0.01% Triton X-100, 500 ug/ml BSA, 20 U/ml SUPERase-In, 4 C; UNK is unkempt and MSI1 is Musashi-1; names of the RNAs are library labels; protein concentration not given here; high values mean tight binding.
B1 came in with a binding signal of 0.966 enrichment R.
In turn, B2 yielded a binding signal of 0.797 enrichment R.
The figure for B3 is 0.825 enrichment R.
With B4 the figure was 1.47 enrichment R.
The figure for B5 is 1.68 enrichment R; for B6 it is 1.55 enrichment R.
B7 showed a binding signal of 0.839 enrichment R.
In turn, B8 registered a binding signal of 1.73 enrichment R.
As for B9, the binding signal was 1.84 enrichment R.
Regarding B10, the binding signal worked out at 1.26 enrichment R.
With B11 the figure was 0.985 enrichment R.
The figure for B12 is 0.743 enrichment R; for B13 it is 3.09 enrichment R.
Turning to B14, the binding signal is 0.998 enrichment R.
The figure for B15 is 0.984 enrichment R.
With B16 the figure was 0.379 enrichment R; with B17, 2.9 enrichment R.
The molecule B18 gave a binding signal of 3.07 enrichment R.
With B19, the binding signal was 1.74 enrichment R.
For B20, the binding signal worked out at 0.971 enrichment R.
With B21 the figure was 0.712 enrichment R; with B22, 0.328 enrichment R.
